Results taken from paper PMC6938348 (PLoS ONE, 2019).

Legend:
[1] = target: T1, Her2 on cells (SKOV3, JIMT-1, MCF7) (Homo sapiens (endogenous in SKOV3, …, UniProt P04626)); experiment: cell-based or functional assay
[2] = target: T1, Her2 on cells (SKOV3, JIMT-1, MCF7); experiment: cell-based or functional assay; remark: listed apart in the source
[3] = target: T1, Her2 on cells (SKOV3, JIMT-1, MCF7); experiment: flow cytometry on cells; saturation binding of full-size antibodies on live low-Her2 MCF7 cells, 4°C 2 h, 0 to 200 nM or 1 μM, washed, anti-human Fc AlexaFluor488-(Fab')2 detection; apparent KD; details: one partner purified
[4] = target: T1, Her2 on cells (SKOV3, JIMT-1, MCF7); experiment: flow cytometry on cells; saturation binding of full-size antibodies on live high-Her2 SKOV3 cells, 4°C 2 h, 0 to 200 nM or 1 μM, washed, anti-human Fc AlexaFluor488-(Fab')2 detection; apparent KD; details: one partner purified
soluble Her2 ectodomain [5] = target: T2, soluble Her2 ectodomain (Homo sapiens (assumed; species and …, UniProt P04626); experiment: SPR; antibody captured on an anti-hFc CM-5 surface, soluble Her2 ectodomain flowed (monovalent binding); single cycle kinetics in duplicate, 25°C, PBS with 3.4 mM EDTA and 0.05% Tween 20; 1:1 binding model; Biacore T200; details: both partners purified
T2 construct: Her2 ectodomain, soluble

soluble Her2 ectodomain [6] = target: T2, soluble Her2 ectodomain; experiment: as above; details: both partners purified; remark: listed apart in the source
soluble Her2 ectodomain [7] = target: T2, soluble Her2 ectodomain; experiment: as above; details: both partners purified; remark: listed apart in the source
[8] = target: T1, Her2 on cells (SKOV3, JIMT-1, MCF7); experiment: cell-based or functional assay; remark: listed apart in the source

Binder | internalization EC50, JIMT-1 cells [1] [nM] | IC50 of cytotoxicity, indirect ADC screen (DM1-conjugated secondary antibody), JIMT1 cells [2] [nM] | IC50 of cytotoxicity, indirect ADC screen (DM1-conjugated secondary antibody), MCF7 cells [2] [nM] | IC50 of cytotoxicity, indirect ADC screen (DM1-conjugated secondary antibody), SKOV3 cells [2] [nM] | IC50 of cytotoxicity, indirect ADC screen (MMAE-conjugated secondary antibody), JIMT1 cells [2] [nM] | IC50 of cytotoxicity, indirect ADC screen (MMAE-conjugated secondary antibody), MCF7 cells [2] [nM] | IC50 of cytotoxicity, indirect ADC screen (MMAE-conjugated secondary antibody), SKOV3 cells [2] [nM] | Kd [3] [nM] | Kd [4] [nM] | kon (soluble Her2 ectodomain [5]) [M⁻¹ s⁻¹] | Kd (soluble Her2 ectodomain [6]) [nM] | koff (soluble Her2 ectodomain [7]) [s⁻¹] | kon (soluble Her2 ectodomain [7]) [M⁻¹ s⁻¹] | IC50 of cytotoxicity, antibody directly conjugated to DM1, SKOV3 cells [8] [nM] | IC50 of cytotoxicity, antibody directly conjugated to PNU, JIMT1 cells [8] [nM] | IC50 of cytotoxicity, antibody directly conjugated to PNU, MCF7 cells [8] [nM] | IC50 of cytotoxicity, antibody directly conjugated to PNU, SKOV3 cells [8] [nM]
Herceptin full-size antibody variant 12–9 (H-D98F, H-D31K, L-D28K) (antibody, V domains shown, as the heavy chain of m2 with the stated changes; as the light chain of m2 with the stated change; FSA; IgG1 is surmised (Synagis is called the IgG1 isotype control); source: CHO-3E7, co-transfected, purified (MabSelect Sure); copies: 2 + 2) VH: not shown VL: not shown | < 1 | 1.3 | 3.1 | 0.0004 | 0.1 | 0.5 | 0.014 | 0.04 | 0.9 | 6.7e+06 | 1.06 | 7e-05 | 66000 | – | – | – | –
Herceptin full-size antibody variant 11–9 (H-D98F, H-D31M, L-D28K) (antibody, V domains shown, as the heavy chain of m2 with the stated changes; as the light chain of m2 with the stated change; FSA; IgG1 is surmised (Synagis is called the IgG1 isotype control); source: CHO-3E7, co-transfected, purified (MabSelect Sure); copies: 2 + 2) VH: not shown VL: not shown | < 1 | 6.7 | 3 | 0.0001 | 0.2 | 0.4 | 0.008 | 0.02 | 0.8 | – | 0.77 | 7.7e-05 | 100000 | 0.003 | 0.08 | 1.24 | 0.041
